# The list shows a part of the results.
# B1: NanI (Corynebacterium diphtheriae), C6JSW7 (protein)
# chain: MTNTLESNPMTTTTGALTITFATTCDGPLAHIPHHLDLNIIHGRIQGTTAHRRIDAEDPDGLDDGLPHHLCLSVDTTGTHLFIDGYEAFSTTQTEWFDTSELTLNPHGDLTIIDHQILNHAPTPRQARNLAPAAEPLVWFAGSHLSTRDTQRISHLTHGSLRLLMKTRGTGQGGVAFQAHTINGDLTLEIIDGTLIFSVRCHDEDYVRITAPGRWDDGQIYDVVIVCGRGATDIYVDGQQLIHSPGAAFFNDLSGELSVHIGTAASGVRLFGEVQSGMIYPHVFNHHQVQRLATVEPIATQALFDCLLDGAQSYRIPSLITTDSGVIIAGADKRVSIANDAPNDIDFVLRRSVDGGRTWQPPRTILQLPDTACVTDSVLLQDHTTGRIFAFLDQFPAGIGQPNAAFGTGFDADGNRIGHFADGSTCTMPREVDQLEASFFSDPHTAPPGIVFQHPSCHLWMLTSDDDGLTWSTPRDLTPDVKEEWMRFCGTSPGNGIQLQRDTHAGRLLIPMYYTKGDQFFAAALYSDDHGDTWHRGESPDLEMYESTLVEASDGSVLLWARNQHPSGAVAHARSTDGGHSWSQVTFNPNVPEIFSQPNALRVTNPDGIIFANASQLLPFRGRGVLRMSTNDGASWQHNRVFNPRHYVYQCMTQLPDGSIGLLWEREMQGLFFSIIPMTWIMQGYAL
# Experiments:
# Assay in all cases: glycan array binding signal (z-score within array); higher = stronger binding
# Conditions in all cases: glycan notation: IUPAC condensed, linker removed
# [1] = target: Neu5Ac(a2-3)[GalNAc(b1-4)]Gal(b1-4)Glc
# Outline: (§1)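 Arrays were curated from the Consortium for Functional Glycomics database, 3228 in total, and kept only where the protein sequence was available. Binding is expressed as a within-array Z-score. This score was averaged across arrays of the same protein sequence at different concentrations or buffers and across linkers, and negative values can be read as non-binding.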
# [2] = target: Neu5Ac(a2-3)[GalNAc(b1-4)]Gal(b1-4)GlcNAc
# Outline: as §1
# [3] = target: Neu5Ac(a2-3)[GalNAc(b1-4)]Gal(b1-4)GlcNAc(b1-3)GalNAc
# Outline: as §1
# [4] = target: Neu5Ac(a2-3)[Neu5Ac(a2-6)]GalNAc
# Outline: as §1
# Neu5Ac(a2-6)Gal = target: Neu5Ac(a2-6)Gal
# Outline: as §1
# [5] = target: Neu5Ac(a2-6)Gal(b1-3)GlcNAc(b1-3)[Gal(b1-4)GlcNAc(b1-6)]Gal(b1-4)Glc
# Outline: as §1
# Neu5Ac(a2-6)Gal(b1-4)Glc = target: Neu5Ac(a2-6)Gal(b1-4)Glc
# Outline: as §1
# [6] = target: Neu5Ac(a2-6)Gal(b1-4)GlcNAc
# Outline: as §1
# [7] = target: Neu5Ac(a2-6)Gal(b1-4)GlcNAc(b1-2)Man(a1-3)Man(b1-4)GlcNAc(b1-4)GlcNAc
# Outline: as §1
# [8] = target: Neu5Ac(a2-6)Gal(b1-4)GlcNAc(b1-2)Man(a1-3)[Gal(b1-4)GlcNAc(b1-2)Man(a1-6)]Man(b1-4)GlcNAc(b1-4)GlcNAc
# Outline: as §1
# [9] = target: Neu5Ac(a2-6)Gal(b1-4)GlcNAc(b1-2)Man(a1-3)[GlcNAc(b1-2)Man(a1-6)]Man(b1-4)GlcNAc(b1-4)GlcNAc
# Outline: as §1
# [10] = target: Neu5Ac(a2-6)Gal(b1-4)GlcNAc(b1-2)Man(a1-3)[GlcNAc(b1-2)Man(b1-4)GlcNAc(b1-2)Man(a1-6)]Man(b1-4)GlcNAc(b1-4)GlcNAc
# Outline: as §1
# [11] = target: Neu5Ac(a2-6)Gal(b1-4)GlcNAc(b1-2)Man(a1-3)[Man(a1-6)]Man(b1-4)GlcNAc(b1-4)GlcNAc
# Outline: as §1
# [12] = target: Neu5Ac(a2-6)Gal(b1-4)GlcNAc(b1-2)Man(a1-3)[Neu5Ac(a2-6)Gal(b1-4)GlcNAc(b1-2)Man(a1-6)]Man(b1-4)GlcNAc(b1-4)GlcNAc
# Outline: as §1
# [13] = target: Neu5Ac(a2-6)Gal(b1-4)GlcNAc(b1-2)Man(a1-6)Man(b1-4)GlcNAc(b1-4)GlcNAc
# Outline: as §1
# [14] = target: Neu5Ac(a2-6)Gal(b1-4)GlcNAc(b1-2)Man(a1-6)[Gal(b1-4)GlcNAc(b1-2)Man(a1-3)]Man(b1-4)GlcNAc(b1-4)GlcNAc
# Outline: as §1
# [15] = target: Neu5Ac(a2-6)Gal(b1-4)GlcNAc(b1-2)Man(a1-6)[GlcNAc(b1-2)Man(a1-3)]Man(b1-4)GlcNAc(b1-4)GlcNAc
# Outline: as §1
# [16] = target: Neu5Ac(a2-6)Gal(b1-4)GlcNAc(b1-2)Man(a1-6)[Man(a1-3)]Man(b1-4)GlcNAc(b1-4)GlcNAc
# Outline: as §1
# [17] = target: Neu5Ac(a2-6)Gal(b1-4)GlcNAc(b1-3)Gal(b1-3)GlcNAc
# Outline: as §1
# [18] = target: Neu5Ac(a2-6)Gal(b1-4)GlcNAc(b1-3)Gal(b1-4)GlcNAc
# Outline: as §1
# [19] = target: Neu5Ac(a2-6)Gal(b1-4)GlcNAc(b1-3)Gal(b1-4)GlcNAc(b1-3)Gal(b1-4)GlcNAc
# Outline: as §1
# [20] = target: Neu5Ac(a2-6)Gal(b1-4)GlcNAc(b1-3)Gal(b1-4)[Fuc(a1-3)]GlcNAc(b1-3)Gal(b1-4)[Fuc(a1-3)]GlcNAc
# Outline: as §1
# [21] = target: Neu5Ac(a2-6)Gal(b1-4)GlcNAc(b1-3)GalNAc
# Outline: as §1
# [22] = target: Neu5Ac(a2-6)Gal(b1-4)GlcNAc6S
# Outline: as §1
# Neu5Ac(a2-6)GalNAc = target: Neu5Ac(a2-6)GalNAc
# Outline: as §1
# [23] = target: Neu5Ac(a2-6)GalNAc(b1-4)GlcNAc
# Outline: as §1
# [24] = target: Neu5Ac(a2-6)GlcNAc(b1-4)GlcNAc
# Outline: as §1
# [25] = target: Neu5Ac(a2-6)GlcNAc(b1-4)GlcNAc(b1-4)GlcNAc
# Outline: as §1
# Neu5Ac(a2-8)Neu5Ac = target: Neu5Ac(a2-8)Neu5Ac
# Outline: as §1
# [26] = target: Neu5Ac(a2-8)Neu5Ac(a2-3)Gal(b1-3)GalNAc(b1-4)[Neu5Ac(a2-8)Neu5Ac(a2-3)]Gal(b1-4)Glc
# Outline: as §1
# [27] = target: Neu5Ac(a2-8)Neu5Ac(a2-3)Gal(b1-4)Glc
# Outline: as §1
# [28] = target: Neu5Ac(a2-8)Neu5Ac(a2-3)[Gal(b1-3)GalNAc(b1-4)]Gal(b1-4)Glc
# Outline: as §1
# [29] = target: Neu5Ac(a2-8)Neu5Ac(a2-3)[GalNAc(b1-4)]Gal(b1-4)Glc
# Outline: as §1
# [30] = target: Neu5Ac(a2-8)Neu5Ac(a2-8)Neu5Ac
# Outline: as §1
# [31] = target: Neu5Ac(a2-8)Neu5Ac(a2-8)Neu5Ac(a2-3)Gal(b1-4)Glc
# Outline: as §1
# [32] = target: Neu5Ac(a2-8)Neu5Ac(a2-8)Neu5Ac(a2-3)[GalNAc(b1-4)]Gal(b1-4)Glc
# Outline: as §1
# [33] = target: Neu5Ac(a2-8)Neu5Ac(a2-8)Neu5Ac(a2-8)Neu5Ac(a2-3)[GalNAc(b1-4)]Gal(b1-4)Glc
# Outline: as §1
# [34] = target: Neu5Ac(b2-6)Gal(b1-4)GlcNAc
# Outline: as §1
# Neu5Ac(b2-6)GalNAc = target: Neu5Ac(b2-6)GalNAc
# Outline: as §1
# [35] = target: Neu5Ac9Ac(a2-3)Gal(b1-3)GlcNAc
# Outline: as §1
# [36] = target: Neu5Ac9Ac(a2-3)Gal(b1-4)GlcNAc
# Outline: as §1
# [37] = target: Neu5Ac9Ac(a2-6)Gal(b1-4)GlcNAc
# Outline: as §1
# [38] = target: Neu5Gc(a2-3)Gal(b1-3)GlcNAc
# Outline: as §1
# [39] = target: Neu5Gc(a2-3)Gal(b1-3)[Fuc(a1-4)]GlcNAc
# Outline: as §1
# Neu5Gc(a2-3)Gal(b1-4)Glc = target: Neu5Gc(a2-3)Gal(b1-4)Glc
# Outline: as §1
# [40] = target: Neu5Gc(a2-3)Gal(b1-4)GlcNAc
# Outline: as §1
# [41] = target: Neu5Gc(a2-3)Gal(b1-4)[Fuc(a1-3)]GlcNAc
# Outline: as §1
# [42] = target: Neu5Gc(a2-6)Gal(b1-4)GlcNAc
# Outline: as §1
# Neu5Gc(a2-6)GalNAc = target: Neu5Gc(a2-6)GalNAc
# Outline: as §1
# [43] = target: Neu5Gc(b2-6)Gal(b1-4)GlcNAc
# Outline: as §1
binder,measurement,setting,value
B1,glycan array binding signal (z-score),[1],-0.037
same,glycan array binding signal (z-score),[2],-0.536
same,glycan array binding signal (z-score),[3],0.669
same,glycan array binding signal (z-score),[4],0.555
same,glycan array binding signal (z-score),Neu5Ac(a2-6)Gal,0.143
same,glycan array binding signal (z-score),[5],-0.363
same,glycan array binding signal (z-score),Neu5Ac(a2-6)Gal(b1-4)Glc,0.097
same,glycan array binding signal (z-score),[6],-0.005
same,glycan array binding signal (z-score),[7],-0.292
same,glycan array binding signal (z-score),[8],-0.774
same,glycan array binding signal (z-score),[9],0.216
same,glycan array binding signal (z-score),[10],1.58
same,glycan array binding signal (z-score),[11],-0.536
same,glycan array binding signal (z-score),[12],0.411
same,glycan array binding signal (z-score),[13],-0.415
same,glycan array binding signal (z-score),[14],0.527
same,glycan array binding signal (z-score),[15],-0.653
same,glycan array binding signal (z-score),[16],-0.675
same,glycan array binding signal (z-score),[17],-0.501
same,glycan array binding signal (z-score),[18],-0.526
same,glycan array binding signal (z-score),[19],-0.846
same,glycan array binding signal (z-score),[20],-0.073
same,glycan array binding signal (z-score),[21],-0.58
same,glycan array binding signal (z-score),[22],1.06
same,glycan array binding signal (z-score),Neu5Ac(a2-6)GalNAc,-0.157
same,glycan array binding signal (z-score),[23],-0.085
same,glycan array binding signal (z-score),[24],0.019
same,glycan array binding signal (z-score),[25],-0.157
same,glycan array binding signal (z-score),Neu5Ac(a2-8)Neu5Ac,-0.202
same,glycan array binding signal (z-score),[26],-0.299
same,glycan array binding signal (z-score),[27],-0.109
same,glycan array binding signal (z-score),[28],1.2
same,glycan array binding signal (z-score),[29],-0.435
same,glycan array binding signal (z-score),[30],-0.456
same,glycan array binding signal (z-score),[31],-1.11
same,glycan array binding signal (z-score),[32],0.332
same,glycan array binding signal (z-score),[33],-0.376
same,glycan array binding signal (z-score),[34],-0.364
same,glycan array binding signal (z-score),Neu5Ac(b2-6)GalNAc,0.225
same,glycan array binding signal (z-score),[35],-0.335
same,glycan array binding signal (z-score),[36],-0.533
same,glycan array binding signal (z-score),[37],-0.403
same,glycan array binding signal (z-score),[38],-0.055
same,glycan array binding signal (z-score),[39],-0.442
same,glycan array binding signal (z-score),Neu5Gc(a2-3)Gal(b1-4)Glc,0.226
same,glycan array binding signal (z-score),[40],0.121
same,glycan array binding signal (z-score),[41],0.452
same,glycan array binding signal (z-score),[42],-0.588
same,glycan array binding signal (z-score),Neu5Gc(a2-6)GalNAc,0.185
same,glycan array binding signal (z-score),[43],-0.807

# Reference: the supplement of paper PMC8728848
